Assay results as given in PubChem BioAssay (NCATS).
This list was built around the results that the source calls inconclusive (neither active nor inactive); the mix of calls is not that of the screen. A call without a number means that no potency is given here. For part of these data: A potency beside an inconclusive call is a rough fit, not a confirmed value. The source made the active and inactive calls. Unless noted, the call rests on the fitted dose curve; in most records, active means well fitted curve in the direction sought with a large enough effect; inconclusive means small, poorly fitted or top-dose-only effect, or another doubt; inactive means no such curve, though single readings can be large; an effect the other way counts as inactive or inconclusive.

How the values were obtained:
[1] = Primary qHTS for inhibitors of nuclear receptor binding SET domain protein 2 (NSD2) in an isogenic RCH-ACV NSD2 p.E1099K mutant (9B) (AID 1645876); settings: activity change, negative = viability loss: at 44.9 µM (top of the series) unless noted; further: nearly all actives have a fitted effect of over 70% in size
[2] = Primary qHTS for inhibitors of nuclear receptor binding SET domain protein 2 (NSD2) in an RCH-ACV wild type WT cells (2C) (AID 1645877); settings: activity change, negative = cell killing: at 44.9 µM (top of the series) unless noted; further: nearly all actives have a fitted effect of over 70% in size
[3] = biological target: Phospholipid hydroperoxide glutathione peroxidase GPX4 (Homo sapiens) (UniProt P36969); test: Primary qHTS Assay for Inhibitors of Recombinant Selenoprotein Glutathione Peroxidase 4 (GPX4) (AID 1845192); settings: activity change, negative = inhibition: at 50 µM (top of the series) unless noted; further: nearly all actives have a fitted effect of over 65% in size
Chain of UniProt P36969 (P36969 whole entry, looked up): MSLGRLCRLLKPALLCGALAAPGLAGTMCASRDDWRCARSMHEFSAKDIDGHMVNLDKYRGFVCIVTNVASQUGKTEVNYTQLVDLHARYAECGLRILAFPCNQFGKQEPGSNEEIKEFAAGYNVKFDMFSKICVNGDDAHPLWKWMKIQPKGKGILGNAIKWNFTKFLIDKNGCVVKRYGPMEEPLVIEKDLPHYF
Procedure, shortened: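 qHTS, GR-coupled: GPX4 200 nM + cpd 30 min RT → GSH 1 mM, NADPH 0.5 mM, GR 100 nM → CHP 0.5 mM start; fluor 340/450 at t0 and t15 min; no-enzyme wells as control.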

OV90 = test: Primary qHTS to identify gynecologic anti-cancer compounds using libraries of approved drugs and bioactive compounds (AID 1345084); settings: Gynecologic cancer cell panel viability, ATPlite luminescence, 48 h; series mostly up to 57.5 µM; further: nearly all actives have a fitted effect of over 55% in size; further: potency means the concentration at half of the fitted maximal effect
Procedure, shortened: (§1)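 Cells, 1,000 per well, plated 16 h, then exposed 48 h at 37 C to compounds. Viability by ATPlite luminescence after 15 min at room temperature.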

SKOV3 = test: as above; settings: Gynecologic cancer cell panel viability, ATPlite luminescence, 48 h; series mostly up to 57.5 µM
Procedure, shortened: as §1

[4] = biological target: Estrogen receptor (Homo sapiens) (UniProt P03372); test: qHTS assay for small molecule agonists of estrogen receptor alpha signaling (AID 588514; calls by dose curve; further: nearly all actives have a fitted effect of over 70% in size); settings: ER-alpha-UAS-bla HEK293, beta-lactamase ratio, 18 h; activation: at 76.8 µM (top of the series), percent of full estradiol response, vehicle zero
Chain of UniProt P03372 (P03372 whole entry, looked up): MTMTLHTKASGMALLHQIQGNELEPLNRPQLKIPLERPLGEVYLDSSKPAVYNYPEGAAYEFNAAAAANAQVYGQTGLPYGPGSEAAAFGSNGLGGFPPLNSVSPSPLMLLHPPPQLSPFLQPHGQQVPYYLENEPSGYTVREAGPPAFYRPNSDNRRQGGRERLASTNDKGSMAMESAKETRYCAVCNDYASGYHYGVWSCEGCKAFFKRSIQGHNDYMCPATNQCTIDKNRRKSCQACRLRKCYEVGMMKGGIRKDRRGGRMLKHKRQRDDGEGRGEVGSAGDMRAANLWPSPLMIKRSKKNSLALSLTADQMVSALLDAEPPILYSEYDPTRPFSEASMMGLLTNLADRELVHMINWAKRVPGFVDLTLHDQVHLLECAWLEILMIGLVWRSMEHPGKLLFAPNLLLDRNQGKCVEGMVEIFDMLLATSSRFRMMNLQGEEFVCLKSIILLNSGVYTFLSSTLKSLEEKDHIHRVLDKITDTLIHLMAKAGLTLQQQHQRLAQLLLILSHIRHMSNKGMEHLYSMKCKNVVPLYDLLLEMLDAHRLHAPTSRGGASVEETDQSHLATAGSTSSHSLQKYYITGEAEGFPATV
Procedure, shortened: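 EC50 and efficacy came from Hill fits of beta-lactamase reporter signal (CCF4 dye, 2 h at room temperature) scaled between DMSO and 20 nM 17-beta-estradiol. Agonist mode: HEK293 ER-alpha-UAS-bla cells in charcoal/dextran-stripped serum medium, 18 h compound exposure at 37 C.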

[5] = biological target: Glucocorticoid receptor (Homo sapiens) (UniProt P04150); test: qHTS assay for small molecule agonists of glucocorticoid receptor signaling (AID 588532; active means well fitted curve in the direction sought with a large enough effect in the signal ratio, with a control signal flat; inconclusive means small, poorly fitted or top-dose-only effect, or a change in a side signal; inactive means no such curve, though single readings can be large or run the other way; the % refers to the signal ratio); settings: HeLa MMTV-bla, beta-lactamase ratio, agonist, 18 h; activation: stronger effect = higher value, percent of dexamethasone control, DMSO zero
Procedure, shortened: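 MMTV-bla HeLa, beta-lactamase reporter; medium with 1% charcoal/dextran-stripped FBS; cpds up to 92 uM, 18 h, 37 C; CCF4 readout 460/530 nm; Hill fit → EC50, efficacy vs 0.1 uM dexamethasone = 100%.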

[6] = biological target: Vitamin D3 receptor (Homo sapiens) (UniProt P11473); test: qHTS assay for small molecule antagonists of vitamin D receptor signaling (AID 588541; calls by dose curve;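 further: receptor activated by calcitriol during compound treatment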); settings: HEK293T VDR-UAS-bla, beta-lactamase ratio, antagonist mode; activity change, negative = inhibition: at 76.7 µM (top of the series) unless noted
[7] = biological target: Retinoic acid receptor RXR-alpha (Homo sapiens) (UniProt P19793); test: qHTS assay for small molecule agonists of retinoid X receptor alpha signaling (AID 588544; calls by dose curve); settings: HEK293T RXRa-UAS-bla, beta-lactamase reporter, 18 h; activation: at 76.7 µM (top of the series)
Chain of UniProt P19793 (P19793 whole entry, looked up): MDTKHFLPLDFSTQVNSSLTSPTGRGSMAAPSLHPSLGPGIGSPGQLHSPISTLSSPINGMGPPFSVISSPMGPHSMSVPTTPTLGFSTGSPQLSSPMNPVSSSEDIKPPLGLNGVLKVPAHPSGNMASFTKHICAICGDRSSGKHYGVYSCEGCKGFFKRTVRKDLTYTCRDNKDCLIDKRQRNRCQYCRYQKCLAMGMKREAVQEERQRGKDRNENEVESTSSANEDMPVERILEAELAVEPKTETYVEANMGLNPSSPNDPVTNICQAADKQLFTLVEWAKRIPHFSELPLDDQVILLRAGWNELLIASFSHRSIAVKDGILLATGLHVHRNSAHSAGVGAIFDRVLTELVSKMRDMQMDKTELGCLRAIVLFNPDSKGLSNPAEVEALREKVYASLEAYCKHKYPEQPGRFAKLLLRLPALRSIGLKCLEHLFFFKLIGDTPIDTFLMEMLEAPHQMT

[8] = qHTS assay for small molecule agonists of the antioxidant response element (ARE) signaling pathway (AID 651741; active means well fitted activation curve with a large enough effect in the signal ratio; inconclusive means small, poorly fitted or top-dose-only effect, or effect the other way, or a change in a side signal; the % refers to the signal ratio; further: potency means the concentration at half of the fitted maximal effect); settings: HepG2 ARE-bla reporter, beta-lactamase FRET ratio, 16 h; activation: at 96 µM (top of the series)
Procedure, shortened: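 Reporter: beta-lactamase under ARE, stably in HepG2. Exposure: 16 h, 37 C, compounds delivered in DMSO by pin tool after 5 h cell preincubation. Readout: FRET substrate fluorescence after 2 h at RT.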

[9] = qHTS assay for small molecule agonists of the antioxidant response element (ARE) signaling pathway measured by Nrf2-dependant transcriptional activity (AID 720636; active means well fitted curve in the direction sought with a large enough effect in the repeat runs; inconclusive means weak or mixed curves; inactive means no such curve, though single readings can be large; an effect the other way counts as inactive or inconclusive; further: potency means the concentration at half of the fitted maximal effect)
Procedure, shortened: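 We exposed ARE-luc HepG2 cells, seeded in assay medium with 1% dialyzed FBS and allowed 6 hr to adhere, to test compounds overnight (16 hr, 37 C) before measuring luciferase with ONE-Glo.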

[10] = qHTS of pediatric cancer cell lines to identify multiple opportunities for drug repurposing: Primary screen for TC32 cells (AID 1347089); further: nearly all actives have a fitted effect of over 60% in size
Procedure, shortened: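 In the primary qHTS, MIPE compounds were tested at 11 concentrations (0.78 nM to 46 µM) and NPC compounds at 8 (0.59 nM to 46 µM) on TC32 cells for 48 h. CellTiter-Glo luminescence gave viability.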

[11] = qHTS of pediatric cancer cell lines to identify multiple opportunities for drug repurposing: Primary screen for A673 cells (AID 1347092); settings: A673 Ewing sarcoma viability, CellTiter-Glo ATP luminescence, 48 h; activity change, negative = cytotoxic: at 46 µM (top of the series); further: nearly all actives have a fitted effect of over 45% in size
Procedure, shortened: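 48 h compound exposure, A673, 500-1,000 cells/well, 37 degrees C/5% CO2. MIPE: 11-point, 0.78 nM-46 µM; NPC: 8-point, 0.59 nM-46 µM (final). Readout CellTiter-Glo luminescence after 15 min RT.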

[12] = qHTS of pediatric cancer cell lines to identify multiple opportunities for drug repurposing: Primary screen for NB-EBc1 cells (AID 1347095)
Procedure, shortened: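 Following a 5-hour attachment period, cells at 500-1,000/well received compounds and were cultured for 48 hours. CellTiter-Glo was added and luminescence read to estimate viable, metabolically active cells.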

[13] = qHTS of pediatric cancer cell lines to identify multiple opportunities for drug repurposing: Primary screen for BT-12 cells (AID 1347101); further: nearly all actives have a fitted effect of over 25% in size
Procedure, shortened: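 Cells (500-1,000/well) rested 5 h, then received compounds for 48 h; metabolically active cells were measured by CellTiter-Glo luminescence. Final concentrations spanned up to 46 µM (MIPE, 11-point) or 0.59 nM-46 µM (NPC, 8-point) in primary screens, 11-point in follow-ups.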

[14] = biological target: Protein phosphatase 1D (Homo sapiens) (UniProt O15297); test: RapidFire Mass Spectrometry qHTS Assay for Modulators of WT P53-Induced Phosphatase 1 (WIP1) (AID 1347424);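 further: amount of dephosphorylated VEPPL-S-QETFS peptide product formed by WIP1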
Chain of UniProt O15297 (O15297 whole entry, looked up): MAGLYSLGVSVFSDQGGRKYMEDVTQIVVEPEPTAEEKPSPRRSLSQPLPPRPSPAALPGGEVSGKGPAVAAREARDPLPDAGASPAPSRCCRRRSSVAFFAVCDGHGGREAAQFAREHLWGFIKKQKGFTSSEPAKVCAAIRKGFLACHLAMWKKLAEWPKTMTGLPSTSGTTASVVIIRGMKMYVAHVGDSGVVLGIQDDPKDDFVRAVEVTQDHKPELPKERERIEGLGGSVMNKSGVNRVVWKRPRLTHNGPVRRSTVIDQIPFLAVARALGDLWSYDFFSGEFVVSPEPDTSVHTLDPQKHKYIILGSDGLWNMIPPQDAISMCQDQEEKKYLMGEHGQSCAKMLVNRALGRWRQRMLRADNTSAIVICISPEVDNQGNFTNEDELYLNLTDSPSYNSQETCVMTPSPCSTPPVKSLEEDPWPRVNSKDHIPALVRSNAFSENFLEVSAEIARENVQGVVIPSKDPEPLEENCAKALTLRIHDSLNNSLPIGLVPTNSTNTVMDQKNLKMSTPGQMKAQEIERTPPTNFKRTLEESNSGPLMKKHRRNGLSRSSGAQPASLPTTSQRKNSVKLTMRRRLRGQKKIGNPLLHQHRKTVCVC
Procedure, shortened: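 Mass-spectrometric measurement of dephosphorylated peptide after a 5 min room-temperature reaction of 10 nM WIP1 with 2 uM phosphopeptide, following 1 h compound preincubation in 30 mM MgCl2 buffer.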

Tov112D = test: Primary qHTS to identify gynecologic anti-cancer compounds using libraries of approved drugs and bioactive compounds (AID 1345084); settings: Gynecologic cancer cell panel viability, ATPlite luminescence, 48 h; series mostly up to 57.5 µM; further: nearly all actives have a fitted effect of over 55% in size; further: potency means the concentration at half of the fitted maximal effect
Procedure, shortened: as §1

[15] = Drug repurposing screens with cells derived from glioblastoma tumor samples (AID 1345199); settings: GBM patient neurospheres viability, ATP luminescence, 48 h; Potency: tumour line A unless noted; activity, negative = cell killing: at 46 µM (top of the series), tumour line A unless noted; further: potency means the concentration at half of the fitted maximal effect; nearly all actives have a fitted effect of over 40% in size
Procedure, shortened: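 Primary testing used CD133+ neurospheres from four GBM patients, seven concentrations, 48 h exposure and ATP-based viability; confirmation added three slower-growing patient lines.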

CP238 = test: qHTS profiling for inhibitors of Plasmodium falciparum proliferation (AID 504749); further: nearly all actives have a fitted effect of over 60% in size; settings: P. falciparum in erythrocytes, SYBR Green DNA, 72 h; series mostly up to 28.7 µM
Procedure, shortened: (§2)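 Quantitative HTS: compounds pinned into medium, infected erythrocytes added (0.3% parasitemia, 2.5% hematocrit), 72 h culture at 37 C under 5% CO2. Saponin/Triton lysis with SYBR Green I, overnight RT, then fluorescence read.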

CP262 = test: as above; settings: P. falciparum in erythrocytes, SYBR Green DNA, 72 h; series mostly up to 28.7 µM
Procedure, shortened: as §2

CP269 = test: as above; settings: P. falciparum in erythrocytes, SYBR Green DNA, 72 h; series mostly up to 28.7 µM
Procedure, shortened: as §2

CP286 = test: as above; settings: P. falciparum in erythrocytes, SYBR Green DNA, 72 h; series mostly up to 28.7 µM
Procedure, shortened: as §2

P94_40 = test: as above; settings: P. falciparum in erythrocytes, SYBR Green DNA, 72 h; series mostly up to 28.7 µM
Procedure, shortened: as §2

[16] = test system: Zika virus NS2B-NS3 protease (unlinked complex); test: Primary screen GU Rhodamine qHTS for Zika virus inhibitors: Unlinked NS2B-NS3 protease assay (AID 1347159); settings: Recombinant ZIKV NS2B-NS3 protease, Rhodamine110 substrate fluorescence; activity change, negative = inhibition: at 107 µM (top of the series); further: nearly all actives have a fitted effect of over 60% in size
Procedure, shortened: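 Buffer 10 mM Tris-HCl pH 8.0, 0.01% Tween 20. Unlinked protease 25 nM; compound preincubation 15 min, RT, protected from light. Substrate Rhod110, 1.5 microM; ~15% conversion in 15 min.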

Tov-21-G = test: Primary qHTS to identify gynecologic anti-cancer compounds using libraries of approved drugs and bioactive compounds (AID 1345084); settings: Gynecologic cancer cell panel viability, ATPlite luminescence, 48 h; series mostly up to 57.5 µM; further: nearly all actives have a fitted effect of over 55% in size; further: potency means the concentration at half of the fitted maximal effect
Procedure, shortened: as §1
Tags describe the fitted curve by direction and shape.

**Q.** Which Potency [1] does the source give for `CC(CCc1ccc(O)cc1)O[C@@H]1O[C@H](CO[C@@H]2OC(CO)[C@H](O)[C@H]2O)[C@@H](O)[C@H](O)[C@H]1O` (stereo not given in full) here?
**A.** inactive

**Q.** What about the Potency [2] of the same compound?
**A.** inactive

**Q.** What about the Potency [3] of the same compound?
**A.** inactive

**Q.** And the Potency (OV90)?
**A.** inactive

**Q.** What about the Potency (SKOV3) of the same compound?
**A.** inconclusive: 3.98 µM [rising, single point]

**Q.** With `CCOC(=O)c1ccc(O)cc1` as the compound, how does the activation [4] read?
**A.** inconclusive: 85.6%

**Q.** What about the activation [5] of the same compound?
**A.** inconclusive: 30.2%

**Q.** What about the activity change, negative = inhibition [6] of the same compound?
**A.** inconclusive: -3.99%

**Q.** And the Potency [7]?
**A.** inactive

**Q.** What about the Potency [8] of the same compound?
**A.** inconclusive: 24.3 µM [activator, partial curve]

**Q.** And the Potency [9]?
**A.** inconclusive: 43.3 µM [activator, partial curve, poor fit]

**Q.** And the Potency [10]?
**A.** inactive

**Q.** And the Potency [11]?
**A.** inactive

**Q.** What about the Potency [12] of the same compound?
**A.** inactive

**Q.** What about the Potency [13] of the same compound?
**A.** inactive

**Q.** What about the Potency [14] of the same compound?
**A.** inactive

**Q.** What about the Potency (OV90) of the same compound?
**A.** inactive

**Q.** And the Potency (SKOV3)?
**A.** inconclusive: 44.7 µM [rising, single point]

**Q.** And the Potency (Tov112D)?
**A.** inactive

**Q.** And the Potency [15]?
**A.** inconclusive: 35.5 µM [inhibitor, partial curve, poor fit]

**Q.** What about the Potency (CP238) of the same compound?
**A.** inactive

**Q.** And the Potency (CP262)?
**A.** inactive

**Q.** And the Potency (CP269)?
**A.** inactive

**Q.** What about the Potency (CP286) of the same compound?
**A.** inactive

**Q.** And the Potency (P94_40)?
**A.** inactive

**Q.** Which Potency [16] does the source give for `CC1C2=CC(=O)OC2(O)CC2C1C(OC(=O)c1ccccc1)C(OC(=O)c1ccccc1)C1(O)C2(C)CCC(O)C1(C)C(=O)O` (stereo not given) here?
**A.** inactive

**Q.** What about the Potency [1] of the same compound?
**A.** inactive

**Q.** And the Potency (OV90)?
**A.** inactive

**Q.** And the Potency (SKOV3)?
**A.** inconclusive: 8.91 µM [rising, partial curve, poor fit]

**Q.** And the Potency (Tov-21-G)?
**A.** inactive
